Measured values: PubChem BioAssay AID463173 (ICCB-Longwood Screening Facility, Harvard Medical School, 2010)
Among all 52,000 compounds or so, about 1,700 (3.3%) were called active. Rule as the data show it: active = survival mostly below about 52% (no sharp cut-off); inactive = mostly above about 56%. This is one part of the list.

The compounds below were run on Wild type (assay: growth inhibition of S. aureus wild type versus tarO mutant, primary screen, teichoic acid synthesis inhibitors, RN4220, OD600 (AID 463173)). Conditions: S. aureus RN4220 wild type/DeltatarO growth, OD600, 18 h, stronger effect = lower value, screened at 18.75 µg/mL (by protocol).

| Structure (SMILES) | survival |
| --- | --- |
| Cc1cccc2cc(CN(Cc3ccco3)C(=O)N3CCOCC3)c(Cl)nc12 | inactive: 108% |
| CCN(c1ccccc1)S(=O)(=O)c1nnc(NC(=O)C(C)Oc2ccccc2)s1 (centres undefined) | inactive: 55% |
| CCOC(=O)Cc1ccc(NC(=O)N2CCC(CN3CCC(C)CC3)CC2)cc1 | inactive: 81% |
| COc1ccc(N(C(=O)c2ccc(C)cc2)S(=O)(=O)c2ccc(Cl)cc2)cc1 | inactive: 84% |
| CCc1cccc(NC(=O)c2sc3nc[nH]c(=O)c3c2C)c1 | inactive: 75% |
| CCc1ccc(NS(=O)(=O)c2ccc3[nH]cc(C(=O)N4CCCCCC4)c(=O)c3c2)cc1 | inactive: 78% |
| O=C1CN(C(=O)c2ccc(S(=O)(=O)N3CCCC3)cc2)C(c2ccc(F)cc2)c2cc(F)ccc2N1 (centres undefined) | inactive: 83% |
| COc1cc(C2C(C(=O)Nc3ccc(C)cc3C)=C(C)Nc3nc(SCc4ccccc4)nn32)cc(OC)c1OC (centres undefined) | inactive: 91% |
| Cc1ccc(CNC(=O)c2cnn3c(C)c(Cc4c(F)cccc4Cl)c(C)nc23)cc1 | inactive: 65% |
| Cc1ccc2oc3c(c(=O)c2c1)C(c1cccc(O)c1)N(CCCN1CCOCC1)C3=O (centres undefined) | inactive: 71% |
| CCOc1ccc(CCNC(=O)c2ccc(C)c(-n3c(C)nc4cccnc43)c2)cc1OCC | inactive: 70% |
| Cc1cccc(-c2nnc(SCC(=O)NC3CCCCC3)o2)c1 | inactive: 83% |
| CCOc1ccccc1NC(=O)c1cc2ccc3cccnc3c2[nH]1 | active: 10% |
| CCN(Cc1ccccc1)C(=O)c1cc2ccc3cccnc3c2[nH]1 | inactive: 22% |
| Cc1cc(Br)ccc1NC(=O)CN1C(=O)c2cccnc2Sc2ccccc21 | inactive: 85% |
| COc1ccc(N(Cc2cccs2)C(=O)COc2ccc([N+](=O)[O-])cc2)cc1 | inactive: 85% |
| CCOc1ccc(C(=O)Nc2cc(-c3ccccc3)no2)cc1 | inactive: 86% |
| O=C(CCn1cnc2onc(-c3ccc(F)cc3)c2c1=O)N1CCN(c2cccc(Cl)c2)CC1 | inactive: 67% |
| O=C(Nc1ccccc1C(F)(F)F)N1CCN(c2ccc3nnc(-c4ccc(F)cc4)n3n2)CC1 | inactive: 69% |
| CCC(C(=O)NCCCN(CC)CC)n1ncn2c(cc3occc32)c1=O (centres undefined) | inactive: 80% |
| CCOc1ccc(CNC(=O)C2Cc3cc(S(=O)(=O)N4CCCCCC4)ccc3N2C(C)=O)cc1 (centres undefined) | inactive: 90% |
| CN1CC=C2C(C#N)=C(N)C(C#N)(C#N)C(CCc3ccccc3)C2C1 (centres undefined) | inactive: 104% |
| Cc1ccc(NC(=O)Cn2c(-c3nonc3N)nc3ccccc32)cc1Cl | inactive: 92% |
| CC1OCC(OC(=O)c2ccccc2)CO1 (centres undefined) | inactive: 100% |
